The BET-seq Pho4 binding data (Le et al. 2018)
This is one part of the list. Values were computed here from the reads of four pooled replicates and scatter widely.

Target: T1, Pho4 (S. cerevisiae) (UniProt P07270)
T1 sequence: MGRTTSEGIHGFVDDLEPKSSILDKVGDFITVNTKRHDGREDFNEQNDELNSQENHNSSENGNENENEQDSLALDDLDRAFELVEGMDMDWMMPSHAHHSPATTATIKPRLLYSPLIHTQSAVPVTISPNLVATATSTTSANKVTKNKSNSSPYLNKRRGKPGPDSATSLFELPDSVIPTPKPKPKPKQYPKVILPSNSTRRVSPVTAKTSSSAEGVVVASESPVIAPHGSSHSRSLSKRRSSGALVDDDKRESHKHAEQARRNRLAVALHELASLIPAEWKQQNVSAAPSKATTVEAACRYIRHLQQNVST
Assay: relative binding free energy (BET-seq); higher = weaker binding
Details: reference: library average

Sequence | relative binding free energy
AGGGGCACGTGTGGTA | -0.02 kcal/mol
ATGGGCACGTGGTATA | -0.19 kcal/mol
AGTCTCACGTGGGTGC | 0.07 kcal/mol
AAGAGCACGTGGACGG | 0.08 kcal/mol
TCAGTCACGTGGACGG | 0.17 kcal/mol
GGCATCACGTGGGGAA | 0.12 kcal/mol
CGAGTCACGTGTACGG | 0.24 kcal/mol
TTATGCACGTGTGGCT | -0.05 kcal/mol
GTTATCACGTGGGCTC | 0.27 kcal/mol
TTGATCACGTGCTATG | -0.04 kcal/mol
CGGGGCACGTGGGATC | -0.17 kcal/mol
GCGATCACGTGGAGTG | 0.21 kcal/mol
GGGGTCACGTGTGTAT | 0.15 kcal/mol
TTTAGCACGTGAACTG | 0.24 kcal/mol
ATCAACACGTGGGTGT | -0.16 kcal/mol
CTTGGCACGTGGTGGC | -0.15 kcal/mol
GTAGTCACGTGCGGGT | 0.15 kcal/mol
AGAGTCACGTGGTGCG | 0.02 kcal/mol
GTTAACACGTGAGCGG | 0.24 kcal/mol
AGTTTCACGTGGTAAG | 0.28 kcal/mol
AAGTGCACGTGCTGGT | 0.03 kcal/mol
TTCTGCACGTGTGGTC | 0.04 kcal/mol
TGAGGCACGTGGAGTA | -0.11 kcal/mol

Sequence | relative binding free energy
ATTTACACGTGGATGA | -0.04 kcal/mol
ATGGGCACGTGTGACG | -0.07 kcal/mol
AAGCACACGTGGGGGG | -0.29 kcal/mol
ATTGGCACGTGTTCGA | -0.24 kcal/mol
TTATGCACGTGGTAAA | -0.09 kcal/mol
ATTCGCACGTGTGGCT | -0.02 kcal/mol
TGAAGCACGTGGATCG | 0.09 kcal/mol
AAGCTCACGTGGGGCG | 0.06 kcal/mol
ATGCGCACGTGGGGCA | -0.2 kcal/mol
GTTTGCACGTGATCTA | 0.04 kcal/mol
TGTTGCACGTGTATGT | 0.14 kcal/mol
GATGGCACGTGGGATG | -0.15 kcal/mol
TTGTCCACGTGGCAGG | 0.02 kcal/mol
ATTCTCACGTGTTATG | 0.22 kcal/mol
GTCAGCACGTGCGGTA | -0.04 kcal/mol
AGTGGCACGTGTGCGG | -0.14 kcal/mol
TGATTCACGTGTGTCT | 0.24 kcal/mol
AGTTTCACGTGGGAAT | 0.17 kcal/mol
TGGTGCACGTGTGAGG | 0.07 kcal/mol
CGTTACACGTGCGTGT | -0.11 kcal/mol
AAAAGCACGTGTTCGG | 0.08 kcal/mol
ATTATCACGTGTTCAG | 0.01 kcal/mol
TATGACACGTGCATTG | 0 kcal/mol

Sequence | relative binding free energy
GGTTTCACGTGGACAA | 0.5 kcal/mol
GAGGTCACGTGAGGTT | 0.32 kcal/mol
GTTAGCACGTGATGTG | 0.1 kcal/mol
GAGTCCACGTGTGTGG | 0.07 kcal/mol
ATAGGCACGTGGATTA | -0.08 kcal/mol
CTAGTCACGTGGTTTA | -0.02 kcal/mol
ATCATCACGTGGGGGT | -0.08 kcal/mol
CGTTGCACGTGTTACG | -0.08 kcal/mol
TTTGCCACGTGCGAGG | -0.09 kcal/mol
TACGTCACGTGGGGTT | -0.03 kcal/mol
GTCTACACGTGTGTTA | 0.24 kcal/mol
TTTGACACGTGAGCTT | 0.11 kcal/mol
ATTAACACGTGAATTG | 0.2 kcal/mol
AGGAGCACGTGTGTTG | -0.18 kcal/mol
ATGCACACGTGTGCGG | 0.04 kcal/mol
GTGCTCACGTGTTGTG | 0.18 kcal/mol
GTTTGCACGTGTTCGA | -0.06 kcal/mol
GGGGTCACGTGAGGAG | 0.36 kcal/mol
CTATTCACGTGGTATG | 0.12 kcal/mol
TAGATCACGTGAGTAT | 0.22 kcal/mol
TTTTGCACGTGGAATT | 0.19 kcal/mol
TAGCGCACGTGAGTTT | 0.12 kcal/mol
AAGTACACGTGGTCGG | 0.05 kcal/mol

Sequence | relative binding free energy
GTGTGCACGTGATCGA | 0.14 kcal/mol
GGTGGCACGTGTTATC | 0.09 kcal/mol
TTGGACACGTGGGGAG | -0.05 kcal/mol
CCGGTCACGTGAGTGT | 0.16 kcal/mol
TAGGGCACGTGGGTCC | -0.22 kcal/mol
GTATTCACGTGGGCGA | 0.1 kcal/mol
GGGCGCACGTGTTGGC | 0.1 kcal/mol
TTCGGCACGTGGTGCT | -0.23 kcal/mol
GTTGTCACGTGGTCGC | 0.1 kcal/mol
AAAGTCACGTGTGTGT | 0.18 kcal/mol
CTACTCACGTGTGTGT | 0.24 kcal/mol
AATTTCACGTGTATTA | 0.11 kcal/mol
TGAGGCACGTGTATTA | -0.01 kcal/mol
TTAGACACGTGGGTTC | 0.03 kcal/mol
GGTTGCACGTGAGTTG | 0.2 kcal/mol
TAGTACACGTGTTTGT | 0.02 kcal/mol
TAGGTCACGTGGTTAG | 0.02 kcal/mol
CTATTCACGTGGGCTG | 0.19 kcal/mol
CGGGTCACGTGTCTGG | 0.19 kcal/mol
TTGTCCACGTGGTATT | -0.11 kcal/mol
CTTTGCACGTGGGGGG | -0.11 kcal/mol
GTCAGCACGTGTTAGG | 0.12 kcal/mol
AGAGGCACGTGATATT | -0.11 kcal/mol

Sequence | relative binding free energy
CTTTTCACGTGTCGGA | 0.31 kcal/mol
CGGGTCACGTGGGCGC | 0.01 kcal/mol
TGGTACACGTGTGAGT | 0.15 kcal/mol
GTGCGCACGTGGGAGC | 0.02 kcal/mol
TAGGTCACGTGCGTTG | 0.07 kcal/mol
ATTCGCACGTGCAGGT | -0.04 kcal/mol
GGCTTCACGTGAGGCG | 0.45 kcal/mol
AGTATCACGTGAGGAT | 0.41 kcal/mol
TGGTCCACGTGGTGTA | 0.01 kcal/mol
TGGCTCACGTGTAATT | 0.33 kcal/mol
CACTTCACGTGGGGGG | 0.14 kcal/mol
CTTGTCACGTGCTTTT | 0.03 kcal/mol
GGCGGCACGTGTGGTG | 0.04 kcal/mol
GGGAGCACGTGGAATT | 0.07 kcal/mol
CGGTTCACGTGGAGGC | 0.31 kcal/mol
TATTACACGTGATTCT | 0.13 kcal/mol
TGTGGCACGTGTCTTT | -0.06 kcal/mol
CTGTACACGTGTTAAA | 0.31 kcal/mol
TGGCTCACGTGAGGTG | 0.45 kcal/mol
ATGGCCACGTGCGAGG | 0.04 kcal/mol
GGCGTCACGTGGGAGG | 0.06 kcal/mol
ACTGGCACGTGTAAAG | 0.21 kcal/mol
TTCGGCACGTGAGGAG | 0.1 kcal/mol
